# Data published in PubChem BioAssay AID504845 (National Center for Advancing Translational Sciences (NCATS), 2011).
# The whole screen tested about 390,000 compounds, of which about 150 (0.038%) were called active. The shares of active, inactive and inconclusive entries below differ from those in the screen. The call rests on the fitted dose curve; in most records, active means well fitted inhibition curve with a large enough effect; inconclusive means small, poorly fitted or top-dose-only effect; inactive means no such curve, though single readings can be large or run the other way. A potency beside an inconclusive call is a rough fit, not a confirmed value.
# Target: Regulator of G-protein signaling 4 (Homo sapiens) (UniProt P49798)
# Sequence of UniProt P49798 (P49798 whole entry, looked up): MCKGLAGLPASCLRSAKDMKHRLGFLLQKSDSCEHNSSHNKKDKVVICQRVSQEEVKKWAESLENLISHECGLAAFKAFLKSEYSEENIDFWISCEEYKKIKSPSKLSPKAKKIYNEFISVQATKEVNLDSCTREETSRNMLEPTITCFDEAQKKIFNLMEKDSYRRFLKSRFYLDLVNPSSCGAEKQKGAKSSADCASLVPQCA
# Test: Inhibitors of Regulator of G Protein Signaling (RGS) 4: qHTS; further: nearly all actives have a fitted effect of over 75% in size
# Conditions: Transcreener GDP fluorescence polarization, RGS4-accelerated GTP hydrolysis; series mostly up to 114 µM; activity change, negative = inhibition: at the top concentration
# How it was run: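 MLSMR compounds (23 nl, pin-transferred) preincubated 10 min at room temperature with a 500nM (2x) first reagent, then RGS4 at 900nM (2x) plus Transcreener GDP mix added; fluorescence polarization (620/688 nm) read before and after 90 min at 30 °C.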
# On the % scale 0 is the no-effect control and ±100 the full control effect; potency means the concentration at half of the fitted maximal effect; tags describe the fitted curve by direction and shape.
Structure (SMILES),"activity change, negative = inhibition",Potency
CCCC(=NCc1ccccc1)C1=C(O)C(C(=O)OC)C(C)(C)CC1=O (stereo not given),inactive: 7.02%,
CCOc1ccc(NC(=O)c2c(NC(=O)Cc3ccccc3)sc3c2CCC(C)C3)cc1 (stereo not given),,"inconclusive: 56.2 µM [inhibitor, partial curve, poor fit]"
O=C(CSc1nnc(-c2cc3ccccc3cc2O)n1Cc1ccco1)c1ccc(F)cc1,,"inconclusive: 89.1 µM [inhibitor, single point]"
COc1cccc(NC(=O)CSc2nc3ccccc3n2C)c1,,"inconclusive: 28.2 µM [inhibitor, full curve, poor fit]"
O=C(CCl)c1ccc(Cc2ncc(C(F)(F)F)cc2Cl)s1,,"inconclusive: 70.8 µM [inhibitor, single point]"
COc1ccc(CNC(=O)C[C@H]2C[C@H](C(=O)N3CCCCC3)[C@@]3(C)c4[nH]c5cc(-c6ccco6)ccc5c4CCN3C2=O)cc1OC,,"inconclusive: 17.8 µM [inhibitor, full curve, poor fit]"
CCOC(=O)C1CCCN(CC(=O)N2CCCc3c2c(=O)oc2ccc(OCc4ccccc4)cc32)C1 (stereo not given),inactive: -13.9%,
N#CCc1c(C#N)c(N)nc(N2CCCC(CO)C2)c1C#N (stereo not given),,"inconclusive: 10 µM [inhibitor, full curve, poor fit]"
CCC(=NC1CC(C)(C)NC(C)(C)C1)C1=C(O)CC(C)(C)CC1=O,,"inconclusive: 89.1 µM [inhibitor, single point]"
CC1CC(O)(Cc2ccccc2)C(C)CN1C (stereo not given),inactive: -21.7%,
CCOC(=O)c1ccccc1NC(=O)c1c2c(nc3ccccc13)C(=O)N(C1CCCCC1)C2,inactive: -4.6%,
CCOC(=O)c1c(-c2ccc(C)o2)csc1NC(=O)CSc1ncn[nH]1,,"inconclusive: 79.4 µM [inhibitor, single point]"
COc1ccc(OCC(=O)NNC(=O)c2cc3ccccc3o2)cc1,inactive: 9.64%,
COc1cc(C(=O)Nc2cccc(-c3nc4cc(C)cc(C)c4o3)c2)cc(OC)c1OC,inactive: 11.4%,
COc1cnc(-c2ccccn2)nc1Oc1ccccc1,,"inconclusive: 70.8 µM [inhibitor, single point]"
COc1ccc(OC)c(C2Nc3c(Cl)ccc(C(=O)O)c3C3C=CCC32)c1 (stereo not given),,"inconclusive: 70.8 µM [inhibitor, partial curve, poor fit]"
Cc1cccc(-c2noc(-c3ccccc3NC(=O)C3CC(=O)N(c4ccccc4C)C3)n2)c1 (stereo not given),inactive: 16.1%,
Cc1ccc(S(=O)(=O)SC/C=C/CSS(=O)(=O)c2ccc(C)cc2)cc1,inactive: -130%,
O=C(NCCc1ccc(Cl)cc1)Nc1ccc(F)cc1,,"inconclusive: 39.8 µM [inhibitor, partial curve, poor fit]"
C=CCSc1n[nH]c2nc3c(c(=O)n12)C1(CCCC1)Cc1ccccc1-3,,"inconclusive: 89.1 µM [inhibitor, single point]"
COCCN(C(=S)Nc1c(C)cc(C)cc1C)C(C)c1cccnc1 (stereo not given),,"inconclusive: 25.1 µM [inhibitor, full curve, poor fit]"
O=C1Cc2ccccc2Sc2ccccc21,,"inconclusive: 89.1 µM [inhibitor, single point]"

Structure (SMILES),"activity change, negative = inhibition",Potency
CC1CCN(C(=O)c2[nH]cnc2C(=O)N[C@@H](C)C(=O)OC(C)(C)C)CC1,inactive: -11.9%,
CC(C)(C)c1cc(-c2n[nH]c(=S)n2-c2ccc(Cl)cc2)n[nH]1,,"inconclusive: 56.2 µM [inhibitor, partial curve, poor fit]"
Cc1ccc(NC(=O)CN2C(=O)S/C(=C\c3cccn3-c3cccc(C(=O)O)c3)C2=O)c(C)c1,inactive: 20.8% [at 11.4 µM],
C#CCOc1c(Br)cc(/C=N/O)cc1OCC,,"inconclusive: 89.1 µM [inhibitor, single point]"
N=c1n(CC(=O)c2ccc(Br)cc2)c2ccccc2n1Cc1ccccc1,inactive: -37.9%,
CC[n+]1c(/C=C/C=C/N(C(C)=O)c2ccccc2)sc2ccccc21,,"inconclusive: 56.2 µM [inhibitor, partial curve, poor fit]"
O=C1C(SCCO)=C(SCCO)C(=O)c2ccccc21,,active: 3.36 µM
COc1cc(C(c2c(C)[nH][nH]c2=O)c2c(C)[nH][nH]c2=O)ccc1OCc1ccc([N+](=O)[O-])cc1,,"inconclusive: 79.4 µM [inhibitor, partial curve, poor fit]"
N#C/C(=C\c1cccnc1)c1nc2ccccc2[nH]1,inactive: -28.1%,
CCCCN1CC(=O)N2[C@@H]3c4cc(OC)ccc4OC[C@@H]3[C@H](C(=O)OCC)[C@]2(C)C1=O,,"inconclusive: 44.7 µM [inhibitor, partial curve, poor fit]"
COc1ccc(C(=O)Oc2ccc3oc(=O)sc3c2)cc1,,"inconclusive: 79.4 µM [inhibitor, partial curve, poor fit]"
O=S(=O)(Nc1nc2ccccc2nc1Cl)c1ccc2ccccc2c1,inactive: 8.88%,
Cn1c(=O)[nH]c(=O)c2c1nc(SCCN1CCOCC1)n2Cc1ccccc1,inactive: -10.6%,
CCNc1ccc(Br)cc(C(=O)/C=C/c2ccc(Cl)cc2)c1=O,,"inconclusive: 79.4 µM [inhibitor, partial curve, poor fit]"
CCOc1ccc(C2C(C#N)=C(N)SC(N)=C2C#N)c(OCC)c1,,"inconclusive: 56.2 µM [inhibitor, partial curve, poor fit]"
COc1ccccc1N1CCN(C(=O)COc2ccc(C)cc2Br)CC1,,"inconclusive: 89.1 µM [inhibitor, single point]"
COC(=O)N/N=C\c1ccccc1OC/C=C/c1ccccc1,inactive: 8.67%,
C=CCOC(=O)c1[nH]c2c(c1C)C(=O)CC(c1ccco1)C2 (stereo not given),,"inconclusive: 20 µM [inhibitor, full curve, poor fit]"
CC(CNC(=O)c1ccc2c(c1)nc1n2CCCCC1)c1ccccc1 (stereo not given),inactive: -2.21%,
Cc1ccccc1C1=C/C(=C(\SS/C(C(=O)c2ccc(OCC(=O)O)c(Cl)c2Cl)=C2\C=C(c3ccccc3C)SS2)C(=O)c2ccc(OCC(=O)O)c(Cl)c2Cl)SS1,,"inconclusive: 79.4 µM [inhibitor, partial curve, poor fit]"
Cc1ccc(NC(=O)c2cc(C(=O)c3cc(Cl)ccc3O)cn(-c3ccc(C)cc3)c2=O)cc1,inactive: -15.8%,
O=S(=O)(NCc1ccccc1)c1ccc(S(=O)(=O)NCC2CCCO2)cc1 (stereo not given),inactive: -10.6%,

Structure (SMILES),"activity change, negative = inhibition",Potency
O=C(CSc1nc(NS(=O)(=O)c2ccccc2)cc(=O)[nH]1)Nc1ccc(F)cc1,,"inconclusive: 79.4 µM [inhibitor, partial curve, poor fit]"
CSc1c(C#N)c(N)nc2sc(C(=O)c3ccccc3)c(N)c12,,"inconclusive: 100 µM [inhibitor, single point]"
Cc1cccc(OCC(=O)N/N=C/CC(C)c2ccccc2)c1C (stereo not given),,"inconclusive: 89.1 µM [inhibitor, single point]"
CCC(=O)Nc1cccc(NC(=S)NC(=O)c2cc3ccccc3o2)c1,,"inconclusive: 89.1 µM [inhibitor, single point]"
O=C(NNC(=O)c1cc2ccccc2cc1O)Nc1ccccc1F,,"inconclusive: 89.1 µM [inhibitor, single point]"
Cc1cccc(CS(=O)(=O)c2nnc([C@H](Cc3ccccc3)NC(=O)OC(C)(C)C)o2)c1,,"inconclusive: 20 µM [inhibitor, full curve, poor fit]"
Fc1cc(F)cc(-c2oncc2-c2nnnn2-c2ccccc2)c1,,"inconclusive: 79.4 µM [inhibitor, partial curve, poor fit]"
CN(C)S(=O)(=O)c1cccc(COc2cccnc2[N+](=O)[O-])c1,,"inconclusive: 50.1 µM [inhibitor, partial curve, poor fit]"
Cc1ccc(NC(=S)c2ccncc2)c(C)c1,,"inconclusive: 50.1 µM [inhibitor, partial curve, poor fit]"
CCc1ccc(CN2CCC(n3nccc3NC(=O)c3ccccc3C)CC2)cc1,inactive: 20.5%,
Cc1ccc(C2=NOC(=O)/C2=C\c2ccccc2)cc1,,"inconclusive: 44.7 µM [inhibitor, partial curve, poor fit]"
CCOc1ccc(N(C)S(=O)(=O)c2ccc3c(c2)CCCN3C(C)=O)cc1,inactive: -7.49%,
COc1nc(NCCO)nc(Nc2ccccc2F)n1,,"inconclusive: 79.4 µM [inhibitor, partial curve, poor fit]"
CCOc1ccc(C(=O)Nc2cccc(-c3nc4cccnc4o3)c2)cc1Cl,,"inconclusive: 50.1 µM [inhibitor, partial curve, poor fit]"
CCc1cccc(NC(=O)CCS(=O)(=O)c2ccc(Br)cc2)c1,,"inconclusive: 20 µM [inhibitor, full curve, poor fit]"
CC(NC(=O)COC(=O)C1CCN(c2ccc(C(F)(F)F)cn2)CC1)c1ccc(Br)cc1 (stereo not given),,"inconclusive: 89.1 µM [inhibitor, single point]"
CCCNC(=O)C(Cc1ccc(I)cc1)NC(=O)c1ccc(C#N)cc1 (stereo not given),,"inconclusive: 70.8 µM [inhibitor, single point]"
CCC(C)(C)NC(=O)c1sccc1Oc1ccc(F)cc1[N+](=O)[O-],,"inconclusive: 50.1 µM [inhibitor, partial curve, poor fit]"
COc1ccc([N+](=O)[O-])cc1N(CC(=O)N1CCOCC1)S(C)(=O)=O,,"inconclusive: 79.4 µM [inhibitor, partial curve, poor fit]"
Cc1csc(NC(=O)CCS(=O)(=O)c2ccc(Br)cc2)n1,,"inconclusive: 50.1 µM [inhibitor, partial curve, poor fit]"
Cc1ccc2c(c1)C(N1CCN(C)CC1)=Nc1cccnc1N2,,"inconclusive: 0.189 µM [inhibitor, full curve, poor fit]"
